Measurements: the antibiotic and cytotoxicity screens of Wong et al. (2023)
The other results are listed elsewhere or left out.

These compounds were tested on S. aureus RN4220 (assay: growth inhibition call (relative growth <= 0.2)). Details: 50 µM.
With `CC#CC(=O)NS(=O)(=O)c1ccccc1` the growth inhibition call was “inactive”. In the case of `Cc1cc(C(=O)Nc2cccc3c2O[C@@H](CN(C)S(=O)(=O)c2ccc(F)cc2)[C@@H](C)CN([C@@H](C)CO)C3=O)n(C)n1`, the growth inhibition call is reported as “inactive”. `Cc1ccc(S(=O)(=O)N(C)C[C@@H]2Oc3ccc(NC(=O)C4CC4)cc3CC(=O)N([C@@H](C)CO)C[C@@H]2C)cc1` was tested, and the growth inhibition call was “inactive”. For `CO[C@H](CN(C)C(=O)c1ccccc1F)[C@@H](C)CN([C@H](C)CO)S(=O)(=O)c1ccc(Cl)cc1`, the growth inhibition call was “inactive”. For `O=C(CN1CCOCC1)N[C@H]1CC[C@@H](CCNC(=O)Nc2cc(F)ccc2F)O[C@@H]1CO`, the growth inhibition call was “inactive”. For `C[C@@H]1CN([C@@H](C)CO)C(=O)c2cc(NS(=O)(=O)c3cccs3)ccc2O[C@@H](C)CCCCO[C@@H]1CN(C)C(=O)Nc1ccc(F)cc1`, the growth inhibition call was “inactive”. In the case of `NC(=O)c1cccnc1N1CCN(C(=O)[C@@H]2CC(=O)N(C3CC3)C2)CC1`, the growth inhibition call is reported as “inactive”. `COc1ccc(NC(=O)Nc2ccc3c(c2)C(=O)N([C@H](C)CO)C[C@@H](C)[C@H](CN(C)S(=O)(=O)c2cn(C)cn2)O3)cc1` was tested, and the growth inhibition call was “inactive”. For `O=C(NC1Cc2ccccc2C1)[C@H]1[C@H](CO)[C@H]2Cn3c(cccc3=O)[C@H]2N1C(=O)c1cnccn1`, the growth inhibition call was “inactive”. With `O=C(C[C@H]1CC[C@@H]2[C@H](COC[C@H](O)CN2C(=O)Nc2ccc(Cl)c(Cl)c2)O1)NCc1ccc(Cl)c(Cl)c1` the growth inhibition call was “inactive”. For `C[C@@H]1CCCCO[C@@H](CN(C)C(=O)Nc2ccc(F)cc2)[C@H](C)CN([C@@H](C)CO)C(=O)c2cc(NC(=O)Nc3ccc4c(c3)OCO4)ccc2O1`, the growth inhibition call was “inactive”. For `Cc1ccc(C(=CCN2CCCC2)c2ccccn2)cc1.Cl`, the growth inhibition call was “inactive”. In the case of `C[C@@H]1CN([C@@H](C)CO)C(=O)c2cc(NC(=O)CCC(F)(F)F)ccc2O[C@H]1CN(C)Cc1ccc(Cl)c(Cl)c1`, the growth inhibition call is reported as “inactive”. In the case of `C=CCNC(=O)[C@H]1[C@@H]2C(=O)O[C@@H](c3ccccc3)[C@@H](c3ccccc3)N2[C@@H](c2ccc(O)cc2)[C@]12C(=O)N(C(=O)OCCOC)c1ccc(C#CC3=CCCCC3)cc12`, the growth inhibition call is reported as “inactive”. For `COc1ccc(S(=O)(=O)Nc2cccc3c2O[C@@H](CN(C)CC2CC2)[C@H](C)CN([C@H](C)CO)C3=O)cc1`, the growth inhibition call was “inactive”. `Cn1cc(CN2CCC3(CC2)CNC(=O)CO3)cn1` was tested, and the growth inhibition call was “inactive”. For `C[C@@H]1CN([C@@H](C)CO)C(=O)c2cc(NC(=O)Nc3cccc4ccccc34)ccc2O[C@H]1CN(C)S(=O)(=O)c1ccccc1`, the growth inhibition call was “inactive”. In the case of `C[C@](N)(Cc1ccc(O)c(O)c1)C(=O)O`, the growth inhibition call is reported as “inactive”. With `COc1ccc(S(=O)(=O)Nc2ccc3c(c2)C(=O)N([C@@H](C)CO)C[C@@H](C)[C@H](CN(C)Cc2ccncc2)O3)cc1` the growth inhibition call was “inactive”. In the case of `C[C@@H]1CN([C@H](C)CO)C(=O)CCCn2cc(nn2)CO[C@@H]1CN(C)C(=O)CCCN(C)C`, the growth inhibition call is reported as “inactive”. In the case of `C[C@@H]1CN([C@H](C)CO)C(=O)c2cc(NC(=O)Nc3cccc4ccccc34)ccc2O[C@@H](C)CCCCO[C@H]1CN(C)S(=O)(=O)c1cccs1`, the growth inhibition call is reported as “inactive”. With `COCCOC(=O)N1C(=O)[C@@]2(c3cc(C#CCNC(N)=O)ccc31)[C@H](C(=O)N1CCCCCCC1)[C@H]1C(=O)O[C@H](c3ccccc3)[C@H](c3ccccc3)N1[C@@H]2c1ccccc1OCCO` the growth inhibition call was “inactive”. With `C[C@H](CO)N1C[C@H](C)[C@@H](CN(C)S(=O)(=O)c2ccccc2)Oc2ccc(NC(=O)C3CC3)cc2CC1=O` the growth inhibition call was “inactive”. With `C[C@H](NC(=O)C(C)(C)Oc1ccc(C(F)(F)F)cn1)[C@@H](Cc1ccc(Cl)cc1)c1cccc(C#N)c1` the growth inhibition call was “inactive”. For `CCC1=NCCO1`, the growth inhibition call was “inactive”. `CN(C)CCCNC(=O)C[C@H]1CC[C@@H]2[C@H](COC[C@@H](O)CN2S(=O)(=O)c2ccc(F)cc2)O1` was tested, and the growth inhibition call was “inactive”. In the case of `Cc1noc(C)c1NC(=O)Nc1ccc2c(c1)C(=O)N([C@@H](C)CO)C[C@@H](C)[C@H](CN(C)C(=O)Nc1ccc(C(F)(F)F)cc1)OCCCC[C@@H](C)O2`, the growth inhibition call is reported as “inactive”. With `Cc1cc(C(=O)Nc2cccc3c2O[C@@H](CN(C)Cc2ccc(Oc4ccccc4)cc2)[C@H](C)CN([C@H](C)CO)C3=O)n(C)n1` the growth inhibition call was “inactive”. `O=C(C[C@H]1C=C[C@@H](NC(=O)Cc2ccccn2)[C@@H](CO)O1)NCCCN1CCOCC1` was tested, and the growth inhibition call was “inactive”. In the case of `CC(C)CC#Cc1cnc2c(c1)C(=O)N([C@@H](C)CO)C[C@H](C)[C@H](CN(C)C(=O)c1ccc3c(c1)OCO3)O2`, the growth inhibition call is reported as “inactive”. In the case of `COc1ccc(S(=O)(=O)Nc2ccc3c(c2)CC(=O)N([C@H](C)CO)C[C@@H](C)[C@H](CN(C)Cc2ccc(-c4ccccc4)cc2)O3)cc1`, the growth inhibition call is reported as “inactive”. For `Cc1ccc(S(=O)(=O)Nc2ccc3c(c2)C(=O)N([C@H](C)CO)C[C@H](C)[C@H](CN(C)C(=O)NC2CCCCC2)OCCCC[C@@H](C)O3)cc1`, the growth inhibition call was “inactive”. `C[C@@H]1CCCCO[C@@H](CN(C)C(=O)NC2CCCCC2)[C@H](C)CN([C@@H](C)CO)C(=O)c2cc(NC(=O)Nc3ccccc3)ccc2O1` was tested, and the growth inhibition call was “inactive”. In the case of `C[C@@H]1CN([C@@H](C)CO)C(=O)c2cc(NC(=O)Nc3ccccc3)ccc2O[C@@H]1CN(C)Cc1ccc(C(=O)Nc2ccccc2N)cc1`, the growth inhibition call is reported as “inactive”. For `C[C@@H]1CN([C@@H](C)CO)C(=O)c2cc(NC(=O)Cc3cn(C)c4ccccc34)ccc2O[C@H]1CN(C)Cc1ccc(C(F)(F)F)cc1`, the growth inhibition call was “inactive”. For `C[C@@H]1CN([C@@H](C)CO)C(=O)Cc2cc(NC(=O)NC3CCCCC3)ccc2O[C@@H]1CN(C)Cc1ccc(C(=O)Nc2ccccc2N)cc1`, the growth inhibition call was “inactive”. With `COc1ccc(CN(C)C[C@@H]2Oc3ccc(NC(=O)CCN4CCOCC4)cc3C(=O)N([C@@H](C)CO)C[C@@H]2C)cc1` the growth inhibition call was “inactive”. For `COc1ccccc1C#Cc1ccc2c(c1)O[C@@H](CN(C)Cc1cncnc1)[C@H](C)CN([C@@H](C)CO)S2(=O)=O`, the growth inhibition call was “inactive”. In the case of `OC1(c2ccc(Cl)c(C(F)(F)F)c2)CCN(CCCC(c2ccc(F)cc2)c2ccc(F)cc2)CC1`, the growth inhibition call is reported as “active”.
